# Experimental data: the supplement of paper PMC7125110
# ± gives the standard error. Variants at the background level are over-represented here.
# B1: glmS ribozyme (parent)
# chain: AUAAAAGCGCCAGAACUACAGAAAUGUAGUUGACGAGGAGGAGGUUUAUCGAAUUUUCGGCGGAUGCCUCCAAA
# Key:
# Conditions in all cases: with glucosamine-6-phosphate
# glucosamine-6-phosphate [1] = variants of: B1; assay: self-cleavage kobs at 640 uM GlcN6P; higher = faster cleavage; RNA array
# Summary of the method: (§1)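 kobs was derived by fitting per-tile medians to one- or two-exponential decays after normalising signals to baseline and to non-cleaving reference variants. Those signals came from barcoded ribozyme variants transcribed in situ by E. coli RNA polymerase on sequenced MiSeq chips, followed through a hybridised Cy3 probe at 37 °C and imaged over ~14 h. Glucosamine-6-phosphate (40 μM to 10 mM) in HEPES/KCl/Mg(OAc)2 buffer was flowed in. Weighted Michaelis–Menten fits across concentrations then gave kcat and KM.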
# glucosamine-6-phosphate [2] = variants of: B1; assay: self-cleavage kobs at 160 uM GlcN6P; higher = faster cleavage; RNA array
# Summary of the method: as §1
# glucosamine-6-phosphate [3] = variants of: B1; assay: self-cleavage kobs at 2500 uM GlcN6P; higher = faster cleavage; RNA array
# Summary of the method: as §1
# glucosamine-6-phosphate [4] = variants of: B1; assay: self-cleavage kobs at 10000 uM GlcN6P; higher = faster cleavage; RNA array
# Summary of the method: as §1
Variant,self-cleavage kobs at 640 uM GlcN6P (glucosamine-6-phosphate [1]),self-cleavage kobs at 160 uM GlcN6P (glucosamine-6-phosphate [2]),self-cleavage kobs at 2500 uM GlcN6P (glucosamine-6-phosphate [3]),self-cleavage kobs at 10000 uM GlcN6P (glucosamine-6-phosphate [4])
G32U G43A,< 1e-05 s⁻¹,< 1e-05 s⁻¹,< 1e-05 s⁻¹,< 1e-05 s⁻¹
G32U U45C C61A,< 1e-05 s⁻¹,,< 1e-05 s⁻¹,
G32U U49A,< 1e-05 s⁻¹,,< 1e-05 s⁻¹,< 1e-05 s⁻¹
A33C A39U C50U,< 1e-05 s⁻¹,,,
A33C A42U C68G,< 1e-05 s⁻¹,,< 1e-05 s⁻¹,
A33C G35A,< 1e-05 s⁻¹,< 1e-05 s⁻¹,< 1e-05 s⁻¹,< 1e-05 s⁻¹
A33C G43U G63U,< 1e-05 s⁻¹,,< 1e-05 s⁻¹,
A33C G51C G59A,< 1e-05 s⁻¹,< 1e-05 s⁻¹,,
A33C G51U C67A,< 1e-05 s⁻¹,,,
A33C U65C,< 1e-05 s⁻¹,,< 1e-05 s⁻¹,
A33G A42C,< 1e-05 s⁻¹,< 1e-05 s⁻¹,< 1e-05 s⁻¹,< 1e-05 s⁻¹
A33G A48C A52U U54A,< 1e-05 s⁻¹,,< 1e-05 s⁻¹,
A33G G40U C58A C67A,< 1e-05 s⁻¹,,< 1e-05 s⁻¹,
A33G G51A C61G,< 1e-05 s⁻¹,< 1e-05 s⁻¹,,
A33G U45C U46A G62A,< 1e-05 s⁻¹,< 1e-05 s⁻¹,< 1e-05 s⁻¹,
A33G U49C G62A,< 1e-05 s⁻¹,,< 1e-05 s⁻¹,
A33G U55A,< 1e-05 s⁻¹,,,< 1e-05 s⁻¹
A33U A36C,< 1e-05 s⁻¹,< 1e-05 s⁻¹,,
A33U A36G,< 1e-05 s⁻¹,< 1e-05 s⁻¹,< 1e-05 s⁻¹,
A33U A48G C67A,< 1e-05 s⁻¹,,,
A33U C34G C70U,< 1e-05 s⁻¹,,,
A33U C50G G51C U55C G62U C68G,< 1e-05 s⁻¹,,,< 1e-05 s⁻¹
A33U C58G,< 1e-05 s⁻¹,,< 1e-05 s⁻¹,

Variant,self-cleavage kobs at 640 uM GlcN6P (glucosamine-6-phosphate [1]),self-cleavage kobs at 160 uM GlcN6P (glucosamine-6-phosphate [2]),self-cleavage kobs at 2500 uM GlcN6P (glucosamine-6-phosphate [3]),self-cleavage kobs at 10000 uM GlcN6P (glucosamine-6-phosphate [4])
A33U C58U C71U,< 1e-05 s⁻¹,< 1e-05 s⁻¹,< 1e-05 s⁻¹,
A33U G60A C67U,< 1e-05 s⁻¹,,,
A33U U45G C71G,< 1e-05 s⁻¹,,< 1e-05 s⁻¹,
A33U U46C A48U G60U,< 1e-05 s⁻¹,< 1e-05 s⁻¹,< 1e-05 s⁻¹,
A33U U54C G59U G66C,< 1e-05 s⁻¹,,,
A33U U57G,< 1e-05 s⁻¹,,,
C34A A42U U55C G60C C71A,< 1e-05 s⁻¹,,,
C34A C61G C67U,< 1e-05 s⁻¹,< 1e-05 s⁻¹,< 1e-05 s⁻¹,
C34A G41A G60C,< 1e-05 s⁻¹,< 1e-05 s⁻¹,< 1e-05 s⁻¹,
C34A G43A G51C U56G,< 1e-05 s⁻¹,,,
C34A G43U A52U,< 1e-05 s⁻¹,< 1e-05 s⁻¹,,< 1e-05 s⁻¹
C34A G51U C61A G63C,< 1e-05 s⁻¹,,,
C34A U45A C71A,< 1e-05 s⁻¹,,,
C34A U47G C50U,< 1e-05 s⁻¹,,,
C34A U57A,< 1e-05 s⁻¹,,< 1e-05 s⁻¹,< 1e-05 s⁻¹
C34G A39U U49G,< 1e-05 s⁻¹,,,
C34G A52C G66U,< 1e-05 s⁻¹,,,
C34G G38A U55A,< 1e-05 s⁻¹,,,
C34G G40U U46A,< 1e-05 s⁻¹,,,
C34G G43A G44A U65A,< 1e-05 s⁻¹,,< 1e-05 s⁻¹,
C34G U46A C67A,< 1e-05 s⁻¹,< 1e-05 s⁻¹,< 1e-05 s⁻¹,
C34U A36G,< 1e-05 s⁻¹,< 1e-05 s⁻¹,< 1e-05 s⁻¹,
C34U C70U,< 1e-05 s⁻¹,< 1e-05 s⁻¹,,

Variant,self-cleavage kobs at 640 uM GlcN6P (glucosamine-6-phosphate [1]),self-cleavage kobs at 160 uM GlcN6P (glucosamine-6-phosphate [2]),self-cleavage kobs at 2500 uM GlcN6P (glucosamine-6-phosphate [3]),self-cleavage kobs at 10000 uM GlcN6P (glucosamine-6-phosphate [4])
C34U G41U,< 1e-05 s⁻¹,< 1e-05 s⁻¹,< 1e-05 s⁻¹,< 1e-05 s⁻¹
C34U G43U G59A G62C C67A,< 1e-05 s⁻¹,,< 1e-05 s⁻¹,
C34U U45C U65A,< 1e-05 s⁻¹,< 1e-05 s⁻¹,,
C34U U46A,< 1e-05 s⁻¹,< 1e-05 s⁻¹,< 1e-05 s⁻¹,< 1e-05 s⁻¹
C34U U54A U69G,0.000598 ± 0.0002 s⁻¹,0.000126 ± 4.6e-05 s⁻¹,0.000128 ± 4.7e-05 s⁻¹,0.000125 ± 3.4e-05 s⁻¹
G35A A39C G63U,< 1e-05 s⁻¹,,< 1e-05 s⁻¹,
G35A A39G G63A,< 1e-05 s⁻¹,,< 1e-05 s⁻¹,
G35A A42G C50A G60U,< 1e-05 s⁻¹,,,
G35A A52C C58G G63U U65A,< 1e-05 s⁻¹,< 1e-05 s⁻¹,< 1e-05 s⁻¹,
G35A A52C G63U,< 1e-05 s⁻¹,,,
G35A C70G,< 1e-05 s⁻¹,< 1e-05 s⁻¹,,
G35A G40U C70A,< 1e-05 s⁻¹,,,
G35A G51A C67A,< 1e-05 s⁻¹,,< 1e-05 s⁻¹,
G35A U47A C61U,< 1e-05 s⁻¹,,< 1e-05 s⁻¹,
G35A U54C,< 1e-05 s⁻¹,< 1e-05 s⁻¹,,< 1e-05 s⁻¹
G35C A39C G41U,< 1e-05 s⁻¹,< 1e-05 s⁻¹,< 1e-05 s⁻¹,
G35C A64C,< 1e-05 s⁻¹,,< 1e-05 s⁻¹,< 1e-05 s⁻¹
G35C G41A U47A C67G,< 1e-05 s⁻¹,,,
G35C G43A U69C,< 1e-05 s⁻¹,,,
G35C U45G G59A,< 1e-05 s⁻¹,,,
G35U A36C A39U,< 1e-05 s⁻¹,,< 1e-05 s⁻¹,< 1e-05 s⁻¹
G35U A42G U55A,< 1e-05 s⁻¹,,,
G35U A52G G62A G63U,< 1e-05 s⁻¹,,,

Variant,self-cleavage kobs at 640 uM GlcN6P (glucosamine-6-phosphate [1]),self-cleavage kobs at 160 uM GlcN6P (glucosamine-6-phosphate [2]),self-cleavage kobs at 2500 uM GlcN6P (glucosamine-6-phosphate [3]),self-cleavage kobs at 10000 uM GlcN6P (glucosamine-6-phosphate [4])
G35U A53U G60U,< 1e-05 s⁻¹,< 1e-05 s⁻¹,,
G35U G38U C67A,< 1e-05 s⁻¹,,,
G35U G40U G63U C71G,< 1e-05 s⁻¹,,,
G35U G40U U45A C67G U69A,< 1e-05 s⁻¹,,< 1e-05 s⁻¹,
G35U G41A U55A G66A C68A,< 1e-05 s⁻¹,,< 1e-05 s⁻¹,
G35U G41C G63A,< 1e-05 s⁻¹,,,
G35U G41U A42U G43A A48G U57C,< 1e-05 s⁻¹,,,
G35U G43C U69G,< 1e-05 s⁻¹,,< 1e-05 s⁻¹,
G35U G59U G63A,< 1e-05 s⁻¹,< 1e-05 s⁻¹,,
G35U U46C A48U,< 1e-05 s⁻¹,,< 1e-05 s⁻¹,
G35U U55A,< 1e-05 s⁻¹,,< 1e-05 s⁻¹,< 1e-05 s⁻¹
G35U U69G,< 1e-05 s⁻¹,,< 1e-05 s⁻¹,
A36C A48U A53C C58A G59C G60A G66C,< 1e-05 s⁻¹,,,
A36C G60U U69G,< 1e-05 s⁻¹,,,
A36C U49G G51C U65C,< 1e-05 s⁻¹,,,
A36C U57G U65G,< 1e-05 s⁻¹,,,< 1e-05 s⁻¹
A36G A52U U57A,< 1e-05 s⁻¹,,< 1e-05 s⁻¹,
A36G G37C U46C,< 1e-05 s⁻¹,,< 1e-05 s⁻¹,
A36G G40U G66A,< 1e-05 s⁻¹,,< 1e-05 s⁻¹,
A36G G66C,< 1e-05 s⁻¹,< 1e-05 s⁻¹,< 1e-05 s⁻¹,
A36G U46A,< 1e-05 s⁻¹,,,< 1e-05 s⁻¹
A36U A39C U56C,< 1e-05 s⁻¹,,< 1e-05 s⁻¹,
A36U A53U U65A,< 1e-05 s⁻¹,,< 1e-05 s⁻¹,

Variant,self-cleavage kobs at 640 uM GlcN6P (glucosamine-6-phosphate [1]),self-cleavage kobs at 160 uM GlcN6P (glucosamine-6-phosphate [2]),self-cleavage kobs at 2500 uM GlcN6P (glucosamine-6-phosphate [3]),self-cleavage kobs at 10000 uM GlcN6P (glucosamine-6-phosphate [4])
A36U G37A U46G,< 1e-05 s⁻¹,,< 1e-05 s⁻¹,< 1e-05 s⁻¹
A36U G41A A42U G43U,< 1e-05 s⁻¹,< 1e-05 s⁻¹,< 1e-05 s⁻¹,
A36U G41A C67U C71U,< 1e-05 s⁻¹,,,
A36U G41U U46G A48U,< 1e-05 s⁻¹,,< 1e-05 s⁻¹,< 1e-05 s⁻¹
A36U G44U U56G,< 1e-05 s⁻¹,,,
A36U G63C C67U,< 1e-05 s⁻¹,< 1e-05 s⁻¹,< 1e-05 s⁻¹,
A36U U49C U65A C71U,< 1e-05 s⁻¹,,,
A36U U56A,< 1e-05 s⁻¹,,,< 1e-05 s⁻¹
A36U U57A,< 1e-05 s⁻¹,,< 1e-05 s⁻¹,
G37A A39G U55A G60A,< 1e-05 s⁻¹,,< 1e-05 s⁻¹,
G37A A39U,0.00028 ± 4e-05 s⁻¹,6.13e-05 ± 1.5e-05 s⁻¹,0.000838 ± 9.2e-05 s⁻¹,0.00116 ± 0.00015 s⁻¹
G37A A52U U55C A64U,< 1e-05 s⁻¹,,,
G37A C50U U55C G59C,< 1e-05 s⁻¹,,,
G37A C58U,< 1e-05 s⁻¹,,< 1e-05 s⁻¹,
G37A G43U G51U U69G,< 1e-05 s⁻¹,,< 1e-05 s⁻¹,
G37A G66C,0.000117 ± 1.8e-05 s⁻¹,4.54e-05 ± 1.4e-05 s⁻¹,0.000357 ± 5.8e-05 s⁻¹,0.000439 ± 8.7e-05 s⁻¹
G37A U47C,0.000181 ± 3.8e-05 s⁻¹,8.31e-05 ± 2.2e-05 s⁻¹,0.000398 ± 7.7e-05 s⁻¹,0.00103 ± 0.00045 s⁻¹
G37C A39G U45A U49A,< 1e-05 s⁻¹,,< 1e-05 s⁻¹,
G37C A52U C71G,< 1e-05 s⁻¹,< 1e-05 s⁻¹,,
G37C G51C,< 1e-05 s⁻¹,< 1e-05 s⁻¹,,< 1e-05 s⁻¹
G37C U45G G63U,< 1e-05 s⁻¹,,< 1e-05 s⁻¹,
